Experimental data from the supplement of paper PMC12632987.
Over roughly 4,500 sequences, “median log2 fold change of GCK-ALFA target abundance (FLAG IP / Myc IP barcode read proportion)” has its median near 0.078; the lowest 2% begin near -0.6. The list shows a part of the results.

B1: GBRAP_52_6171 (protein)
chain: SAEKARKMAEELLEAIKAGDEEKVKKILEEIAKNYTDEEIAAMLREVAKRVPSLSPEDQERVVEAALELEDIAVKAGHDENVLQIEVARVAAAAYDALQA
B2: GBRAP_166_4937 (protein)
chain: SVEEALERLRKLIKEALERMKTANAEERTELWIEVGEALREAREAGVSREEILEAVREFLEGVKELGWNIRIAAGIIINEADFTEEEIDEVWAIVDEILA
B3: GBRAP_128_3276 (protein)
chain: MNEEVVEKALEFVERLKEADEEEAREIAEEFAEWLGSISTEEAEQAVDVIIERLGELSAEQLEILADVLREHRGKFDPEKANLVADLQVEALNEAVEKEE
B4: GBRAP_52_6355 (protein)
chain: MRERMRKIVEEMVKLKKEGKEEELKELAKEVVKTLSPEELRLLFDELARLALESDKETAEALFEVAEVLEDEMLEAGRDEFEASALLSRVGKAVYENLQK
B5: GBRAP_35_5518 (protein)
chain: STSETETEMLVATIEDLVLAVADMPVEQAAAIANKLIDDALKLAKENKDDLEALKKIKKALEKLLAAIKKNYPDSPLAKETAEKIEKAIKEIEKLIKEAK
B6: GBRAP_166_4909 (protein)
chain: SNEEKIKKLKEEAEKLIKELKEANEEEALELIIEFGEVLEELKKLGASEEEILELVRKLLEAVKEKGFSVKVAAGIIANVADFDEEEIEKLDKIAEEVEK
B7: GBRAP_160_3969 (protein)
chain: SEEVEKLLKEIDEIFEEAKEMIVGESFENRLTIVRVAVGEVLLLLSENPLVSDEAEDKVDEIGDELIATIEANPDLTEEEIKELIDKAEEEIKKIIKEDA
B8: GBRAP_39_5709 (protein)
chain: DEEEELELLAEYYAADAAKAQVESGVSLEDFLAAQRKEIEEEAKTNPESKEVYERLLELMDEGDEVDALIAAGIAAALKAGMPVEEAQAILDEVERERKE
B9: GBRAP_35_5550 (protein)
chain: SDEETIVEMLRNTAEDLLLAVDTMPIDTLFTVTTQIAELVLEALREERSNKEGMRELGRAMIAALDAAIARAKAEGAPQEKIDELERLRKEVEEALKELE
B10: GBRAP_117_2602 (protein)
chain: MSKLEKAKELAKKLVELIRKSLEESKKLTPEERKELEKKTLEEVTKLVKEMLKLVDVDTLEELFAEATEDLTPEERVKAYILYEEALAEALDERKKEEEE
B11: GBRAP_160_4784 (protein)
chain: MERVEKVAKRFREAAKRALELSKGETAENRANIVDVELGSAILELEEEGLLNDEEEEVAAEVRDELVAEILANPNLTDEELKALLEKAVEELRKRLEELE
B12: GBRAP_48_5834 (protein)
chain: MPFDEEKLEKLVKETVEEMKEVYEEAKAEGLSREEILKMVRALLGDLALELEEAGYTKAADYLLDPENREKVATTLVELFDEGKYEEAKKYLLDTLKKVE
B13: GBRAP_184_5245 (protein)
chain: MVIDVEVTVSTKEEAIEKLKEVEEEAKKKGAKVDLIVTLTNATKELVETTMKLIKELKEKGLLNSVEVVIDNYEDEETLELAFDLAHEVGVDALAYDEKE
B14: GBRAP_184_5253 (protein)
chain: AVLERTIEAENVEELKAQMAKIGAEALATGADLIITLKAKEVTKEMIKALFDAIAALKAAGYTGRVTVGIDADLSEEMIDFAIEQADKAGVNLVLALPEE
B15: GBRAP_184_5076 (protein)
chain: AVLEETLRVEDLEEARARLAALRERVADFRGTLVVLVEMPEFERETARAVLEGLAAMKAAGYVTDVTVGFDAPLTEEQVDFVVDTADALGVKVTLALPEE
B16: GBRAP_83_6984 (protein)
chain: AEEIVVAAPADRAAEAVEIAEDLSKEEGYDVTLEILVRADQLDKALAAVEEAIAKLDGIEIVLALEGATPEQAAALQARANAAAAAAGSNSTITVVLEEP
B17: GBRAP_74_6546 (protein)
chain: SEELIKKAKEAKEKKDIEELIKLTREALEKGDKKAAIETLRLLAEAVVENKDEVTYEELEAAAEVIAEALEKIDDLEFSDELFKLIAEVLKLAVEAEKAK
B18: GBRAP_160_4620 (protein)
chain: SEELEEIIELVEEEREFVLEIIDEEDIETARLAFEIESGSIILEAEESEYISDEAVEKIDEIRDKAVETLKANPDASKEEVKKVVTEAFDEIKEIIKEEE
B19: GBRAP_78_6642 (protein)
chain: KVEELIDEAIEKLDEAHRLAQKLPEELRNELLAEIVEAESYLLLAEENGYDLKELKEALKELEEALKLVKKSDHPEAPEIAKELEEAIKLVKEAIKLVEK
B20: GBRAP_160_4748 (protein)
chain: KEELEKLKKEVEEIFEEGIELLRESPASEAPTIVRGTMGEVIMLVMSSEAASDELEEKVAEIADRAEAEAAANADAPVEVHVAILERAREEVLKIIEEAI
B21: GBRAP_160_4813 (protein)
chain: MEEVEKELEEAREDLLETAEASKDLPVADRAKLLEAEGYTEILELEEELNLSDETVDELVKIVDDLVATLLANPDLSDEEVLALVEEAAEKIEEVVLKEA
B22: GBRAP_166_4942 (protein)
chain: ALEKVLKELKAKIEEFEKNIKNLNEEEKFDRIIEIGELIKKAKEAGASDEELVEAIKKVLEAAKKAGFNPAVAAGIIANVADVSEELLDKIWKYVDELKK
B23: GBRAP_78_6661 (protein)
chain: ERKKLLEEAIEHVDKAAKILLKLNTEEALEVLDKLSEARAELVEVELENLGKEALEEALKLLEEARKLLEKYKDKFPEEDYKEIKEHLDKAIKLVKEALK
B24: GBRAP_52_5846 (protein)
chain: MEEEARRIAEELVRLRLEGKEEELEKRIKEIVETKSEEFVFLILEELARLAKEADEETAEAILEVAELLADIAEKAGFDPDKLSYLLARVYAAVYERLQK
B25: GBRAP_137_3619 (protein)
chain: KTVTITFSEEDGTAFATIVASPEVDHEKLEELIEEVAEETGAQLVKAYDEDSETAEFDLVGTPEQIIAATKLLIERLKSEMGAEVVLTSDGAEDLVEAVK
B26: GBRAP_52_6058 (protein)
chain: MEKEIKEIAEKIAEAIKAGDLEKALELLKELIKNKSVEEITETLRLAAELVAKLGEEKHEKFVELLDKVEELMIEAGISEEEALLVVGDAEAALARAVAA
B27: GBRAP_128_3448 (protein)
chain: SAEAIEARAREVAAAFAEKLEEGPEAAADYLIEQLAAADLEEVEAITEAVVEVLRTLDNETAEEVVDLILEKSRSLSPEKRAVVDVILSPLIFELVEKEE
B28: GBRAP_160_4248 (protein)
chain: EERIKKLREDFLAEAEDTLEALLELPRSQWAAIARAMAGNIVQLVIEDPNATDEAEEAVDKLADALVERLLAARDASPEELRALLEEGVAEIVAAYEKLV
B29: GBRAP_11_2622 (protein)
chain: KKEILKKIAELAKEAAELAEKLLKEGVDNEELRKELREKLKELAELVEKHADESSKKDVEIAEELFKEAEEDEENKEEYFKQLLAALRVLAGNFLLEIEE

These binders were tested against GABARAP, O95166 (assay: median log2 fold change of GCK-ALFA target abundance (FLAG IP / Myc IP barcode read proportion) (log2 ratio); each designed protein is fused to an ALFA-tag nanobody in HEK293 cells to bring the named protein to FLAG-tagged glucokinase (GCK); Myc marks an untargeted standard; higher = target protein stabilised (more abundant)). Conditions: target protein: 3xFLAG-MCP-GCK-ALFA reporter; HEK293 landing pad (RPLP).
GABARAP, O95166, sequence (O95166 whole entry, the tested form may be a part): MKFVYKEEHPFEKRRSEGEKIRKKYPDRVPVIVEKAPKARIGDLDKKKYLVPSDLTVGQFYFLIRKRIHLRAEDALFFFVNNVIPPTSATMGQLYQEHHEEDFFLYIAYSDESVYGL
In short: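 An ALFA-nanobody-fused binder library was recombined into HEK293 landing-pad cells and induced with 2 μg mL^−1 doxycycline. Cells were transfected with a plasmid expressing a FLAG-tagged target and a Myc-tagged standard. After 48 h, lysates underwent anti-FLAG and anti-Myc immunoprecipitation, and circular RNA barcodes were reverse transcribed, amplified and sequenced. Target abundance is the per-binder median log2 ratio of FLAG to Myc barcode read proportions. Barcodes needed ≥10^−7 proportion in both replicates, binders ≥3 barcodes per replicate, and a 10^−6 pseudocount was added; the two replicates were pooled.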

Row | Binder | median log2 fold change
1 | B1 | -0.631
2 | B2 | 0.252
3 | B3 | -0.0114
4 | B4 | 0.039
5 | B5 | 0.195
6 | B6 | -0.0535
7 | B7 | -0.61
8 | B8 | 0.0701
9 | B9 | -0.103
10 | B10 | 0.278
11 | B11 | 0.242
12 | B12 | 0.225
13 | B13 | 0.088
14 | B14 | 0.0779
15 | B15 | 0.0481
16 | B16 | 0.108
17 | B17 | -0.147
18 | B18 | -0.209
19 | B19 | 0.246
20 | B20 | 0.148
21 | B21 | -0.183
22 | B22 | 0.222
23 | B23 | 0.235
24 | B24 | 0.0444
25 | B25 | -0.356
26 | B26 | -0.378
27 | B27 | 0.114
28 | B28 | 0.148
29 | B29 | 0.0325
